Measurements from a compilation of properties of binary mixtures (doi:10.1021/je300622r).
The densities may have been worked out from excess volumes.

Assay: xn = mol fraction of the nth substance listed
Conditions: 101 kPa

CCCC[n+]1ccn(C)c1.O=S(=O)([O-])O + O
mass density [kg/m3]
Conditions | x2 = 0.0083 | x2 = 0.095 | x2 = 0.2013 | x2 = 0.3903 | x2 = 0.5924 | x2 = 0.7934 | x2 = 0.8988
303.15 K | 1276 | 1274.3 | 1271.6 | 1263.9 | 1248.4 | – | 1157.5
313.15 K | 1269.9 | 1268 | 1265.2 | 1257.3 | 1241.9 | 1203.2 | 1150.4
323.15 K | 1263.9 | – | 1258.8 | 1251.1 | – | 1196.2 | 1143.3
333.15 K | 1258 | 1255.5 | 1252.7 | 1245 | 1229 | 1189.3 | 1136.2
343.15 K | – | 1249.7 | 1246.8 | 1238.9 | 1222.6 | 1182.4 | –

CCOS(=O)(=O)[O-].CC[n+]1ccn(C)c1 + O
Conditions | mass density [kg/m3]
283.15 K, x2 = 0.0023 | 1250.3
283.15 K, x2 = 0.1225 | 1247.8
283.15 K, x2 = 0.427 | 1237.9
283.15 K, x2 = 0.798 | 1192.9
293.15 K, x2 = 0.798 | 1185.7
303.15 K, x2 = 0.427 | 1223.8
303.15 K, x2 = 0.6124 | 1210.4
303.15 K, x2 = 0.798 | 1178.5
313.15 K, x2 = 0.427 | 1216.9
313.15 K, x2 = 0.6124 | 1203.3
313.15 K, x2 = 0.798 | 1171.2
323.15 K, x2 = 0.6124 | 1196.3
323.15 K, x2 = 0.8983 | 1118.6
333.15 K, x2 = 0.0023 | 1216.2
333.15 K, x2 = 0.6124 | 1189.4
333.15 K, x2 = 0.8983 | 1111.6
343.15 K, x2 = 0.6124 | 1182.4
343.15 K, x2 = 0.798 | 1149.4
343.15 K, x2 = 0.8983 | 1104.3

CC[n+]1ccn(C)c1.COS(=O)(=O)[O-] + O
mass density [kg/m3]
Conditions | 278.15 K | 288.15 K | 298.15 K | 308.15 K | 318.15 K | 328.15 K | 338.15 K
x2 = 0.0023 | 1301.4 | – | – | 1280.4 | – | – | 1260.3
x2 = 0.0887 | 1299.2 | 1292.1 | – | 1278.3 | 1271.5 | 1264.8 | 1258.3
x2 = 0.2235 | 1294.9 | 1287.9 | 1280.9 | – | 1267.3 | 1260.6 | 1254.1
x2 = 0.4163 | 1285.1 | 1278 | 1271 | – | 1257.2 | 1250.5 | –
x2 = 0.6106 | 1265.8 | 1258.7 | 1251.7 | 1244.7 | 1237.8 | 1230.9 | –
x2 = 0.7999 | 1219.5 | 1212.5 | 1205.6 | 1198.6 | 1191.6 | 1184.5 | 1177.4
x2 = 0.8948 | 1164.8 | – | 1152.2 | – | 1139.1 | 1132.3 | 1125.4
